This passage reports switch fluorescence ratio results from the supplement of paper PMC10126150.

Sequences with one replicate were seen in a single cluster, so their values are uncertain.

In the series the test system is ATP. The series can be described thus: switch fluorescence ratio, 500 uM ATP over buffer (Cy3 cluster intensity, sum of 5 cycles each) (fold (ratio)); higher = stronger signal-on switching upon ATP binding; sequences stand for … in TCGTCGGCAGCGTCAGATGTGTATAAGAGACAGTTTTTTTTTTTTTTTTTTTTTTTTT…TC. Conditions: aptamer strand: ATP DNA aptamer (quencher-CACCTGGGGGAGTATTGCGGAGGAAGG + anchor), 100 nM annealed; ATP concentration: 500 uM; one replicate. In a few lines:
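Between each of five buffer/ATP cycles, the flow-cell was stripped with NaOH and re-annealed. Each cycle imaged Cy3-labelled switching-strand clusters, annealed to 100 nM quencher-labelled ATP aptamer on a modified Illumina MiSeq flow-cell, first in selection buffer and then after 15 min with 500 uM ATP at 22 °C. The fluorescence ratio is summed target-cycle over summed buffer-cycle Cy3 intensity per cluster, averaged per switch-domain sequence, with clusters outside 100-1000 RFU excluded.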
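Further: ATP exposure 15 min at 22 °C before imaging.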

Consider GAGAGTGAGG, for which the switch fluorescence ratio was 0.97.

In the case of TTGGGTTAGA, the switch fluorescence ratio was 0.962. As for TGAGGACGAG, the switch fluorescence ratio stood at 1.01. As for GGTAGAGCGT, the figure is 0.981; as for TTTGCGCATC, 2.33. Next, TCGATGTTCC: 1.03; GTGATAAGTA: 0.982. Turning to TGTTTCTGTT, the switch fluorescence ratio turned out to be 0.989.

Consider ACGGTGTGGG, for which the switch fluorescence ratio is 1.01. Turning to TGCAGCGGCT, the switch fluorescence ratio stood at 1.02. Next, GTAGGAGCGA: 0.973; GAAAAACTTG: 1.01; TGGGAGAAA: 1.03. Next, TTACCTATAA: 1.07; CGTTATCCTA: 0.95; AAGATTGGCT: 0.982. As for ATTGAATAGC, the figure is 0.992; as for AGTCGTTTTC, 1.04. As for GGGCCAGGAT, the switch fluorescence ratio was found to be 0.943. As for GACAGGATTT, the figure is 1; as for TATATAAAGG, 1.04; as for ATCGATCACT, 1.01. Next, GCTATAAAAT: 0.957; TAAACTTTAA: 1.08; TATCAAGTTT: 1.01. Next, CGAGTTAACT: 0.989. As for CTCAGCCGGA, the switch fluorescence ratio stood at 0.957. For the sequence GTCCTTAATG, the switch fluorescence ratio is 0.99. For TCCAATGTCA, the switch fluorescence ratio stood at 1.03. Turning to CAGTATTGAG, the switch fluorescence ratio turned out to be 1.01. As for ATGATGCCTA, the figure is 0.981; as for ATAAGGTGCT, 1.23.

Consider AGGGCGGTCC, for which the switch fluorescence ratio came out at 1.03. As for CCCCGAATG, the figure is 1.42; as for TTCTGACCAT, 1.03. As for GTGCTAGTTC, the figure is 1.05; as for AGAAAAAAA, 0.979. As for GAGCTTTGTG, the figure is 0.979; as for CGCACCGAGG, 1.05; as for TAATGGCGTC, 1.06. As to ATGTAAAACG, the switch fluorescence ratio came out at 0.956. Regarding AGCTACATG, the switch fluorescence ratio was 1. Take CGTATGAGAT: the switch fluorescence ratio was found to be 0.987.

As to GATGGTTGGC, the switch fluorescence ratio was 0.989. Next, TAATTCCACT: 1.01; GAACCCGTAC: 1.46. As for TCACTTCGTC, the figure is 1.03; as for AGGTTGGTCA, 0.986; as for GCGTCGTACG, 0.982.

As to TAGTTTCCCC, the switch fluorescence ratio came to 1.16. As for AATGGCGGGG, the figure is 0.988. Next, TTTAGGCACC: 1.04. Consider TTTTATTTGA, for which the switch fluorescence ratio is 1.01. Regarding AATTAACTGG, the switch fluorescence ratio is 0.971. Next, GTAGTGAGTC: 1; ATCATAGGGA: 0.942.

Regarding TATCGGAACG, the switch fluorescence ratio turned out to be 1.01.

Take GTACGATCCT: the switch fluorescence ratio came to 1.01. As for CGTGAAAATG, the figure is 0.972; as for TAGGGGCAGA, 1.02; as for GATTGAACCA, 0.982. Next, CTGGCGGGGG: 1.05; ACAGGTCAAG: 1. Next, ATAAAGCTCG: 1.02; CTGTGACTCA: 1.01. In the case of GGTTTTCAGA, the switch fluorescence ratio came to 0.993. As for CAAGTTGCCT, the figure is 1.04; as for GTTGTGATGG, 0.961; as for TCCAAGTGCC, 1.02. Next, GATTTCTCAT: 1.02.

In the case of ACGCGGGACC, the switch fluorescence ratio came to 0.994. As to TTGGTTGTGA, the switch fluorescence ratio was determined as 0.956. Next, GAACTGACGG: 1.22. As for TCCTGGGTGG, the figure is 1.08.

With GTCGATTAA, the switch fluorescence ratio came out at 0.954. CCGTGTGCGG: the switch fluorescence ratio came to 0.979.

As to ATTTATTACT, the switch fluorescence ratio is 0.997. As for CGTCTCAGAA, the figure is 0.984; as for AATGATGGTG, 1.04.
